{"source": "PubChem BioAssay AID624418", "about": "(National Center for Advancing Translational Sciences (NCATS), 2012)", "note": "The campaign covered roughly 410,000 compounds. About 530 (0.13%) were called active. The inconclusive results got no clear call from the source; some entries with a clear call stand among them for comparison. Calls follow the shape of the dose curve; as a rule, active = well fitted inhibition curve with a large enough effect; inconclusive = small, poorly fitted or top-dose-only effect, or another doubt; inactive = no such curve, though single readings can be large or run the other way. A potency beside an inconclusive call is a rough fit, not a confirmed value. % is scaled to controls: 0 for no effect and ±100 for the full control effect; potency is read from the fitted curve at half-maximal effect.", "data": [{"assay": "qHTS of GLP-1 Receptor Inverse Agonists: Cytotox Screen", "conditions": "HEK293 cAMP-luciferase reporter cells, luminescence, 24 h; activity change, negative = inhibition: at 38.3 µM (top of the series) unless noted", "summary_of_the_method": "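To flag toxic compounds, the library was rerun on cells for 24 hr at 37 deg C and 5% CO2. Viability-linked luminescence was captured 12 min after adding luciferase detection reagent.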", "values": [{"smiles": "COc1cc(OC)c(NC(=O)c2sc3nc4n(c(=O)c3c2C)CCCC4)cc1Cl", "activity change, negative = inhibition": "inactive: -10.8%"}, {"smiles": "CCOc1ccc(CN2CCCC(CO)(Cc3ccc(F)cc3)C2)cc1", "note": "(stereo not drawn)", "Potency": "inconclusive: 28.2 µM [inhibitor, single point]"}, {"smiles": "C=CC[C@@H](CC(=O)N(CCO)Cc1ccccc1)C(=O)N[C@@H](COC(=O)[C@@H](CC=C)Cc1ccc(F)cc1)Cc1ccccc1", "Potency": "inconclusive: 28.2 µM [inhibitor, single point]"}, {"smiles": "CC1(C)CC(C)(c2ccc(O)cc2O)N(c2ccc3ccccc3c2)C(=S)N1", "note": "(stereo not drawn)", "Potency": "inconclusive: 31.6 µM [inhibitor, single point]"}, {"smiles": "Cc1cc(OC(F)F)ccc1NC(=S)NC1CCCC1", "Potency": "inconclusive: 28.2 µM [inhibitor, single point]"}, {"smiles": "O=C(Nc1cccc(F)c1)c1cc(S(=O)(=O)NCCC2=CCCCC2)ccc1F", "Potency": "inconclusive: 14.1 µM [inhibitor, partial curve, poor fit]"}, {"smiles": "COc1ccc(Nc2nc(C(=O)N3CCc4cc(OC)c(OC)cc4C3)cs2)cc1", "Potency": "inconclusive: 10 µM [inhibitor, partial curve]"}, {"smiles": "COC(=O)c1cnn(-c2ccc(F)cc2F)c1/C=N/NC(=S)NC(C)(C)C", "Potency": "inconclusive: 11.2 µM [inhibitor, single point]"}, {"smiles": "N/C(=N\\OC(=O)c1ccc(Cl)cc1[N+](=O)[O-])c1ccccn1", "Potency": "inconclusive: 31.6 µM [inhibitor, single point]"}, {"smiles": "COc1ccc(Nc2ccc(C(N)=O)cc2[N+](=O)[O-])cc1", "Potency": "inconclusive: 28.2 µM [inhibitor, single point]"}, {"smiles": "O=C(CCl)Nc1ccc(-c2ccccc2)cc1", "Potency": "inconclusive: 10 µM [inhibitor, partial curve]"}, {"smiles": "CC(C)NC1=C(Cl)C(=O)c2ccccc2C1=O", "Potency": "active: 5.62 µM"}, {"smiles": "Cc1cc(-c2ccc(S(=O)(=O)Nc3cccc(C)c3C)s2)on1", "Potency": "inconclusive: 11.2 µM [inhibitor, partial curve]"}, {"smiles": "NC(Cc1ccc(C(F)(F)F)cc1)c1csc(NC(=O)Nc2ccccc2Oc2ccccc2)n1", "note": "(stereo not drawn)", "Potency": "active: 11.2 µM"}, {"smiles": "O=c1c2ccccc2sn1-c1cc(S(=O)(=O)N2CCOCC2)ccc1N1CCCC1", "activity change, negative = inhibition": "inactive: -24.4%"}, {"smiles": "Oc1ccc(C[C@@H]2CNCCN2CCC23CC4CC(CC(C4)C2)C3)cc1", "Potency": "inconclusive: 28.2 µM [inhibitor, single point]"}, {"smiles": "C=CCC[C@@H](Cc1ccc(F)cc1)C(=O)OC[C@@H](Cc1c[nH]c2ccccc12)NC(=O)[C@H](CC=C)CC(=O)N(CCO)Cc1ccccc1", "activity change, negative = inhibition": "inactive: -0.625%"}, {"smiles": "O=C(Nc1ccccc1C(=O)Nc1nnc(C(F)(F)F)s1)c1ccccc1", "Potency": "active: 3.16 µM"}, {"smiles": "c1ccc(-n2nnnc2Oc2cccc3cccnc23)cc1", "Potency": "inconclusive: 11.2 µM [inhibitor, single point]"}, {"smiles": "CC(=O)Nc1cccc(NC(=O)c2cc(-c3cccnc3)nc3ccc(Br)cc23)c1", "Potency": "inconclusive: 17.8 µM [inhibitor, partial curve, poor fit]"}, {"smiles": "O=S(=O)(Nc1ccccc1N1CCCCC1)c1cccs1", "Potency": "inconclusive: 3.16 µM [inhibitor, partial curve, poor fit]"}, {"smiles": "O=C(Nc1ccccn1)c1ccc2ccccc2n1", "activity change, negative = inhibition": "inactive: -0.145%"}, {"smiles": "COc1cccc(C(=O)O/N=C(\\N)c2ccc([N+](=O)[O-])cc2)c1OC", "Potency": "inconclusive: 11.2 µM [inhibitor, partial curve, poor fit]"}, {"smiles": "CN(C)CC/C=C1\\c2ccccc2Sc2cc(F)c(Cl)cc21", "Potency": "inconclusive: 28.2 µM [inhibitor, single point]"}, {"smiles": "Cc1cccc(C(=O)N[C@H](C(=O)Nc2ccc(S(=O)(=O)NC3=NCCCCC3)cc2)C(C)C)c1", "activity change, negative = inhibition": "inactive: 6.13%"}, {"smiles": "COc1cc2c3c(c1)/C(=C1/SC(=S)NC1=O)C(=O)N3C(C)(C)C=C2C", "Potency": "inconclusive: 28.2 µM [inhibitor, single point]"}, {"smiles": "O=C(Nc1nc(-c2ccccn2)cs1)Nc1ccc(F)cc1F", "Potency": "inconclusive: 7.08 µM [inhibitor, partial curve, poor fit]"}, {"smiles": "Cc1cccc2c(=O)n(C(=O)c3ccccc3)c(N)nc12", "activity change, negative = inhibition": "inactive: -5.73%"}, {"smiles": "Cc1ccc(Cl)cc1N1CCN(C(=O)CSc2nnc3n2C(C)(C)Cc2ccccc2-3)CC1", "activity change, negative = inhibition": "inactive: -24.7%"}, {"smiles": "CC(C)N1C/C(=C/c2ccsc2)C(=O)/C(=C/c2ccsc2)C1", "Potency": "inconclusive: 10 µM [inhibitor, partial curve, poor fit]"}, {"smiles": "O=C(Nc1cccc(Cl)c1)c1c(NC(=O)C(F)(F)F)sc2c1CCCC2", "Potency": "inconclusive: 3.55 µM [inhibitor, partial curve, poor fit]"}, {"smiles": "Cc1nn2c(NCCCN(C)C)c3c(nc2c1-c1ccccc1)CCCC3", "Potency": "inconclusive: 7.94 µM [inhibitor, partial curve, poor fit]"}, {"smiles": "COCCCNC(=S)N1CCN(C(c2ccccc2)c2ccccc2)CC1", "activity change, negative = inhibition": "inactive: 12.9%"}, {"smiles": "Cc1cn2c(=O)cc(COc3ccc(NC(=O)c4cccc(F)c4)cc3)nc2s1", "activity change, negative = inhibition": "inactive: -0.975%"}, {"smiles": "CCC(Sc1nnc(C)n2c1cc1occc12)C(=O)Nc1ccccc1F", "note": "(stereo not drawn)", "activity change, negative = inhibition": "inactive: 8.92%"}, {"smiles": "COC(=O)C1=C(C)N(Cc2ccccc2)C(=NCc2cc(OC)c(OC)c(OC)c2)N[C@H]1c1ccc(Br)cc1", "Potency": "inconclusive: 28.2 µM [inhibitor, single point]"}, {"smiles": "CCN1CCN(C(c2cccnc2)c2c(NC(=O)c3ccco3)sc(C)c2C)CC1", "note": "(stereo not drawn)", "activity change, negative = inhibition": "inactive: -11.3%"}, {"smiles": "COc1ccc(C(CCNCc2ccc(OC(C)C)cc2)C(C)C)cc1", "note": "(stereo not drawn)", "Potency": "inconclusive: 14.1 µM [inhibitor, single point]"}, {"smiles": "Cc1cc(=O)n2[nH]c(N)c(N=Nc3ccccc3)c2n1", "Potency": "inconclusive: 28.2 µM [inhibitor, single point]"}, {"smiles": "CN(C)CCCN(C(=O)CCSc1ccccc1)c1nc2cc3c(cc2s1)OCO3", "Potency": "inconclusive: 12.6 µM [inhibitor, partial curve, poor fit]"}, {"smiles": "COc1ccccc1CN(CC(=O)NCc1ccc(F)cc1)C(=O)c1csnn1", "activity change, negative = inhibition": "inactive: -2.48%"}, {"smiles": "c1ccc(-c2nc(NCC3CCCO3)c3ccccc3n2)nc1", "note": "(stereo not drawn)", "Potency": "inconclusive: 1.58 µM [inhibitor, full curve, poor fit]"}, {"smiles": "CCN1C(=O)S/C(=C/c2ccc(Sc3nc4ccccc4[nH]3)o2)C1=O", "activity change, negative = inhibition": "inactive: -7.89%"}]}]}
